Results reported in the supplement of paper PMC3334620.
Whole data set: some 33,000 sequences, median “E-score (-0.5 to 0.5)” near -0.035, cut for the highest 2% near 0.35. This is one part of the list.

Target: T1, Pdr3 (UniProt P33200)
T1 sequence: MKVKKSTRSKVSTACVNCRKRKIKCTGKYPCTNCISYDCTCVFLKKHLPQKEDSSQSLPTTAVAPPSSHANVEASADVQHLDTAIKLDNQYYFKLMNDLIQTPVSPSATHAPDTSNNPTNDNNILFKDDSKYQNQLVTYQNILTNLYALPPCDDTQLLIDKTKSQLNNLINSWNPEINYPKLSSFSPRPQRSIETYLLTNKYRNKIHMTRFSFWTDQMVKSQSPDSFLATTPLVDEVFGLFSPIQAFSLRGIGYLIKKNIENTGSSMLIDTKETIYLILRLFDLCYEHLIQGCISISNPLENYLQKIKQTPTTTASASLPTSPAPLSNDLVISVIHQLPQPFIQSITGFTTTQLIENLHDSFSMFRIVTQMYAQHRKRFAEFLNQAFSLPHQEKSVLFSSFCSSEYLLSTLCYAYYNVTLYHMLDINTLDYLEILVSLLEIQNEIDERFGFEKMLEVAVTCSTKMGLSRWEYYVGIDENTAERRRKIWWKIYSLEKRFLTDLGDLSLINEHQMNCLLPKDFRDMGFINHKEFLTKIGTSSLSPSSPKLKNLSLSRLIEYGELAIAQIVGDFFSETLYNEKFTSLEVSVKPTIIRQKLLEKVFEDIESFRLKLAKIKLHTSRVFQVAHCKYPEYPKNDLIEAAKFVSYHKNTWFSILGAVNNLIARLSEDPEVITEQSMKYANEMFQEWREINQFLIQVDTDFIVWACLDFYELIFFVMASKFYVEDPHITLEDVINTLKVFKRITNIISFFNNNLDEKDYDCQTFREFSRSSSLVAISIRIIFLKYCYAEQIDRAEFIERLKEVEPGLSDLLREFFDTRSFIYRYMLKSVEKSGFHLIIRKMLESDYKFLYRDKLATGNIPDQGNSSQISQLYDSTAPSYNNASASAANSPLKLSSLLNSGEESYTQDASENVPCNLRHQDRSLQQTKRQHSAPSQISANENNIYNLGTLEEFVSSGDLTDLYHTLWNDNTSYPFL
Assay: PBM E-score (8-mer binding enrichment) (E-score (-0.5 to 0.5)); higher = stronger / more preferred TF binding; most listed sequences are background and not binding sites
Conditions: protein concentration: 200 nM; construct: GST-full length
How it was run: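 The E-score, a modified Wilcoxon-Mann-Whitney statistic, was computed by the Universal PBM Analysis Suite for every ungapped eight-base word pooled with its reverse complement. Scans behind it were normalised with masliner after bound GST-tagged yeast transcription factors were detected with fluorescent anti-GST. The proteins, at about 100-200 nM, had been applied to universal all-10-mer Agilent arrays made double-stranded by primer extension.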

Row | Sequence | PBM E-score
1 | AGTGATAA | -0.12
2 | AAGATTCG | 0.108
3 | GCTTAAGA | -0.038
4 | AAAGCAAG | 0.122
5 | AGCTAACG | -0.207
6 | CAATGCTA | -0.161
7 | CGTTTGCA | 0.0843
8 | CCGCTCGC | 0.277
9 | CAAGGAAC | 0.161
10 | AGGCCAAA | 0.0479
11 | CTGTCGAA | -0.161
12 | TAGGGGCA | -0.206
13 | CTTTAAAC | -0.159
14 | CGGATGAA | 0.31
15 | GCTCTTCA | -0.14
16 | CATACTCA | -0.0349
17 | AACCCGGC | 0.289
18 | AGTCGGGA | 0.188
19 | GACTGCGC | 0.015
20 | CCATAGCA | -0.114
21 | ATAAAACA | -0.0575
22 | ACCTCGTA | 0.0191
23 | CGCCACAC | 0.0531
24 | CTCAAACC | -0.0558
25 | AATGGCGG | 0.229

Row | Sequence | PBM E-score
26 | ATGCTGCG | -0.159
27 | CCATCTTA | -0.108
28 | CACAGTAG | -0.204
29 | CGAGGGAG | 0.0672
30 | ACTAGTTG | -0.139
31 | GTACAGAC | -0.254
32 | AATCGGTC | 0.227
33 | CCCTCTGC | -0.316
34 | CCGATACA | 0.206
35 | ATGTAGAG | -0.0921
36 | ATCCATCG | -0.00715
37 | CCCTCTAG | -0.273
38 | CACAATGA | -0.0245
39 | CAAAATTG | -0.0531
40 | AAGTCTGG | -0.229
41 | ATCATATG | -0.0169
42 | CAGCAGCA | -0.0603
43 | AGTCTGCA | -0.227
44 | GATAACGA | -0.0144
45 | GACTCGCA | -0.113
46 | CGGCAGCA | 0.109
47 | TCGTGGCA | -0.129
48 | CGACTTCC | 0.135
49 | GCGCTTAA | -0.0159
50 | GCGTCTAA | -0.25

Row | Sequence | PBM E-score
51 | AAATACTC | 0.0144
52 | AGGTCGCG | 0.098
53 | ACCTACCA | -0.181
54 | CGAGAGGC | -0.119
55 | CGCTAGAA | -0.182
56 | ATGGCGGG | 0.298
57 | ATGGGCGA | 0.0465
58 | ACTATGAA | -0.136
59 | CGCAGCTC | -0.0701
60 | GTCCGCAA | 0.259
61 | ATGGCAGG | 0.191
62 | GGAGTCAC | -0.0786
63 | GCCTTTCA | -0.0759
64 | AGACAAGG | -0.16
65 | GAGCTTGA | -0.0385
66 | CGGAACCC | 0.477
67 | AGAGAAGG | -0.0862
68 | ATTGAATC | -0.106
69 | ATTTCACG | 0.0732
70 | AGACTAAG | -0.174
71 | ACTTATCC | 0.177
72 | AGTTGAGG | 0.0177
73 | GCCTGGAC | -0.0556
74 | AAGGTTTC | -0.00441
75 | ACCTGCTA | -0.188

Row | Sequence | PBM E-score
76 | CATTTGTC | -0.0826
77 | GTAGAGGA | -0.139
78 | GCCAGAGA | -0.0394
79 | CATGAGGG | -0.0553
80 | ACCCTCGG | 0.156
81 | CATACTGA | -0.136
82 | GACATACA | 0.211
83 | ACTAACTG | -0.106
84 | CCATAACG | -0.0278
85 | GAGCCTGA | -0.178
86 | GGAAAATA | 0.299
87 | AACGTCTA | -0.139
88 | GAAGGTTA | -0.062
89 | CCCTTGAG | -0.135
90 | GCCACTGA | -0.015
91 | ATAACTTC | 0.0689
92 | AAGGAGGA | -0.184
93 | AAATTCTC | 0.0766
94 | GCATGGGA | -0.0349
95 | CGACCTGA | -0.129
96 | GATCCCAA | 0.0388
97 | CCTATTGC | -0.18
98 | AAATACCT | 0.0069
99 | AACGCCGT | 0.00403
100 | AATCAGCG | 0.213

Row | Sequence | PBM E-score
101 | ACACTGGA | -0.0404
102 | GCTGTATA | -0.296
103 | ATCACACG | -0.0253
104 | ATTCTGAA | -0.0569
105 | CGGTTTGA | 0.0259
106 | CACCGCGC | 0.166
107 | AAGTTTAG | -0.175
108 | AGGGTTTG | -0.00234
109 | AAGACTGC | -0.254
110 | ACACAGCA | -0.00473
111 | TAAATAGA | -0.179
112 | AGCGACTG | -0.227
113 | CAGGAGCA | -0.0699
114 | GCGGCCGA | 0.222
115 | CATCGTCC | 0.0726
116 | CGTGGTGC | -0.0695
117 | ATTGGTGA | -0.193
118 | GGATGAGA | -0.0152
119 | GAGTTCAA | -0.113
120 | CCACATGC | -0.0304
121 | ATTACACA | -0.0105
122 | AGGCGATC | -0.177
123 | AAGATCCC | 0.013
124 | ACCGCGAT | 0.177
125 | AGGAATCG | 0.116

Row | Sequence | PBM E-score
126 | CCGAGCGG | 0.274
127 | AGCCTCAG | -0.0761
128 | GTCATTTA | -0.254
129 | CATGGTGC | -0.157
130 | ACTTAGGG | -0.0922
131 | CGGTTTGC | 0.124
132 | AAAGATTG | -0.177
133 | CTGAATCC | 0.0967
134 | GGGCGGCA | 0.193
135 | AGTGTACC | -0.188
136 | CCGATGAA | 0.178
137 | TAGCCCGA | 0.00326
138 | GCCGGCGC | 0.372
139 | CTGGTTCC | 0.264
140 | CTTTTTTC | 0.00094
141 | AGTGCGCA | 0.177
142 | CAGGAGCC | -0.121
143 | ACTACGAT | -0.0892
144 | ATGCGCCG | 0.262
145 | AGGTTGGC | -0.0851
146 | GTGGCACA | -0.194
147 | ATTAAAAC | -0.0309
148 | GCGCCAAC | 0.0994
149 | CGCGGGAG | 0.279
150 | TCTTCTCA | 0.111

Row | Sequence | PBM E-score
151 | ACCAGAGT | -0.273
152 | AGAGTCCT | -0.133
153 | GATCCTGC | -0.00469
154 | CCCGAAGC | 0.175
155 | TACTGCCA | -0.0397
156 | CACTTATG | 0.0429
157 | GACCCAGA | 0.0239
158 | CAATTCCG | 0.435
159 | GACAGACC | -0.116
160 | AACAGACA | 0.157
161 | AGATGCAA | -0.194
162 | AACAGCAG | 0.0785
163 | ACACCTTA | -0.104
164 | ATGCGCTC | -0.0721
165 | TGATTCCA | -0.054
166 | ACATAAGA | -0.0601
167 | ATTGTCGA | 0.0994
168 | AATGCAGG | 0.00441
169 | CACATGTC | 0.00635
170 | ATCACGAC | -0.105
171 | AACAATAG | -0.174
172 | CTGATCAG | 0.0843
173 | CGTATCAA | -0.0785
174 | GCACTTGA | -0.138
175 | AGATTCTC | 0.00017

Row | Sequence | PBM E-score
176 | AACTGAAA | -0.119
177 | CCCAAGAC | -0.147
178 | CTCTCGCA | -0.212
179 | CATCTTCA | -0.217
180 | CAGAGATG | -0.184
181 | CCTGACTC | -0.115
182 | AGACCTTC | -0.102
183 | GCCCATCA | -0.109
184 | TCAATTGA | 0.139
185 | CCAGCGCG | 0.105
186 | CATCGGTC | 0.0314
187 | GCAAGAAC | -0.0844
188 | GCGCCCGC | 0.0841
189 | GCGATCCC | 0.135
190 | ACTGAGAT | -0.221
191 | AACTAAAG | -0.189
192 | AGGGAACA | -0.0421
193 | TACGCATA | -0.126
194 | CTTGTCGC | 0.118
195 | TATCGAAA | 0.0199
196 | CAGGATTA | -0.0573
197 | GTATCAAC | 0.15
198 | CGAGCACC | 0.0866
199 | ACGACGAT | 0.119
200 | AAATATGG | -0.00786

Row | Sequence | PBM E-score
201 | CTTGGGCC | -0.0633
202 | ATCAAGGG | 0.0172
203 | GCTCGCAC | 0.0918
204 | AAGTCAAA | -0.0991
205 | TGAGGACA | -0.184
206 | AAGCACGG | 0.104
207 | AAACATTA | -0.0733
208 | CCCACAGG | -0.137
209 | CCGCTTAG | 0.138
210 | CGGCCGGA | 0.396
211 | TCTAACCA | -0.174
212 | CCTACAGC | -0.0513
213 | GAGCTCGA | 0.0764
214 | ATGCCCTC | -0.0557
215 | CTACAGAA | -0.154
216 | CCTTTGTC | -0.167
217 | ATCATCGC | -0.0145
218 | CAGAAATA | -0.00397
219 | AACGGCAC | -0.0354
